# Test results: the supplement of paper PMC8728848
# The list shows a part of the results.
# B1: AFL5 (Aspergillus fumigatus), Q4WB00 (protein)
# chain: MDNFMEMTKKLGHQPELLRLRALDATYDDALEGKLVVAPLDMSEPGKKILDSGTADGTWLRNVRSKQSVPHDYYGSDVEGELFPKDPDGITYFAHSFKDPWPQQYLGFFDLVHIRGSLAGSAPEGPAPVIQNLTTLLKPGGWVQLMEMNAFSPPPNGPAMTDFAKMASEMFTGIGVGDFANNNKSMLEDAGLKNVQEKRVIVNLGKKAKPELHDQSIHGVTGPIVPLTSVARTVKSSFTGEQLDALPARVKEELETEGGQVEMIIAFGQKA
# Columns and labels:
# Assay in all cases: glycan array binding signal (z-score within array); higher = stronger binding
# Settings in all cases: glycan notation: IUPAC condensed, linker removed
# Gal(a1-3)Gal = target: Gal(a1-3)Gal
# In short: (§1)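 Glycan array binding is given as a within-array Z-score, which can be read as non-binding when negative. The arrays, 3228 of them, came from the Consortium for Functional Glycomics database and were retained only where the protein sequence was available. Z-scores were averaged across arrays of the same protein sequence at different concentrations or buffers and across linkers.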
# Gal(a1-3)Gal(b1-3)GlcNAc = target: Gal(a1-3)Gal(b1-3)GlcNAc
# In short: as §1
# [1] = target: Gal(a1-3)Gal(b1-3)GlcNAc(b1-2)Man
# In short: as §1
# [2] = target: Gal(a1-3)Gal(b1-3)GlcNAc(b1-2)Man(a1-3)[Gal(a1-3)Gal(b1-3)GlcNAc(b1-2)Man(a1-6)]Man(b1-4)GlcNAc(b1-4)GlcNAc
# In short: as §1
# [3] = target: Gal(a1-3)Gal(b1-3)GlcNAc(b1-3)GalNAc
# In short: as §1
# [4] = target: Gal(a1-3)Gal(b1-3)GlcNAc(b1-6)GalNAc
# In short: as §1
# [5] = target: Gal(a1-3)Gal(b1-3)[Fuc(a1-4)]GlcNAc(b1-2)Man(a1-3)[Gal(a1-3)Gal(b1-3)[Fuc(a1-4)]GlcNAc(b1-2)Man(a1-6)]Man(b1-4)GlcNAc(b1-4)GlcNAc
# In short: as §1
# Gal(a1-3)Gal(b1-4)Glc = target: Gal(a1-3)Gal(b1-4)Glc
# In short: as §1
# Gal(a1-3)Gal(b1-4)GlcNAc = target: Gal(a1-3)Gal(b1-4)GlcNAc
# In short: as §1
# [6] = target: Gal(a1-3)Gal(b1-4)GlcNAc(b1-2)Man
# In short: as §1
# [7] = target: Gal(a1-3)Gal(b1-4)GlcNAc(b1-2)Man(a1-3)[Gal(a1-3)Gal(b1-4)GlcNAc(b1-2)Man(a1-6)]Man(b1-4)GlcNAc(b1-4)GlcNAc
# In short: as §1
# [8] = target: Gal(a1-3)Gal(b1-4)GlcNAc(b1-3)GalNAc
# In short: as §1
# [9] = target: Gal(a1-3)Gal(b1-4)GlcNAc(b1-6)GalNAc
# In short: as §1
# [10] = target: Gal(a1-3)Gal(b1-4)[Fuc(a1-3)]GlcNAc
# In short: as §1
# [11] = target: Gal(a1-3)Gal(b1-4)[Fuc(a1-3)]GlcNAc(b1-2)Man(a1-3)[Gal(a1-3)Gal(b1-4)[Fuc(a1-3)]GlcNAc(b1-2)Man(a1-6)]Man(b1-4)GlcNAc(b1-4)GlcNAc
# In short: as §1
# Gal(a1-3)GalNAc = target: Gal(a1-3)GalNAc
# In short: as §1
# [12] = target: Gal(a1-3)[Gal(a1-4)]Gal(b1-4)GlcNAc
# In short: as §1
# [13] = target: Gal(a1-4)Gal(b1-3)GlcNAc(b1-2)Man(a1-3)[Gal(a1-4)Gal(b1-3)GlcNAc(b1-2)Man(a1-6)]Man(b1-4)GlcNAc(b1-4)GlcNAc
# In short: as §1
# Gal(a1-4)Gal(b1-4)Glc = target: Gal(a1-4)Gal(b1-4)Glc
# In short: as §1
# Gal(a1-4)Gal(b1-4)GlcNAc = target: Gal(a1-4)Gal(b1-4)GlcNAc
# In short: as §1
# [14] = target: Gal(a1-4)Gal(b1-4)GlcNAc(b1-2)Man(a1-3)[Gal(a1-4)Gal(b1-4)GlcNAc(b1-2)Man(a1-6)]Man(b1-4)GlcNAc(b1-4)GlcNAc
# In short: as §1
# [15] = target: Gal(a1-4)Gal(b1-4)GlcNAc(b1-3)Gal(b1-4)Glc
# In short: as §1
# Gal(a1-4)GlcNAc = target: Gal(a1-4)GlcNAc
# In short: as §1
# Gal(a1-6)Glc = target: Gal(a1-6)Glc
# In short: as §1
# Gal(b1-2)Gal = target: Gal(b1-2)Gal
# In short: as §1
# Gal(b1-3)Gal = target: Gal(b1-3)Gal
# In short: as §1
# Gal(b1-3)Gal(b1-4)GlcNAc = target: Gal(b1-3)Gal(b1-4)GlcNAc
# In short: as §1
# Gal(b1-3)GalNAc = target: Gal(b1-3)GalNAc
# In short: as §1
# [16] = target: Gal(b1-3)GalNAc(a1-3)[Fuc(a1-2)]Gal(b1-4)Glc
# In short: as §1
# [17] = target: Gal(b1-3)GalNAc(a1-3)[Fuc(a1-2)]Gal(b1-4)GlcNAc
# In short: as §1
# Gal(b1-3)GalNAc(b1-3)Gal = target: Gal(b1-3)GalNAc(b1-3)Gal
# In short: as §1
# [18] = target: Gal(b1-3)GalNAc(b1-3)Gal(a1-4)Gal(b1-4)Glc
# In short: as §1
# [19] = target: Gal(b1-3)GalNAc(b1-4)Gal(b1-4)Glc
# In short: as §1
# [20] = target: Gal(b1-3)GalNAc(b1-4)[Neu5Ac(a2-3)]Gal(b1-4)Glc
# In short: as §1
# Gal(b1-3)GlcNAc = target: Gal(b1-3)GlcNAc
# In short: as §1
# [21] = target: Gal(b1-3)GlcNAc(a1-3)Gal(b1-4)GlcNAc
# In short: as §1
# [22] = target: Gal(b1-3)GlcNAc(a1-6)Gal(b1-4)GlcNAc
# In short: as §1
# Gal(b1-3)GlcNAc(b1-2)Man = target: Gal(b1-3)GlcNAc(b1-2)Man
# In short: as §1
binder,measurement,setting,value
B1,glycan array binding signal (z-score),Gal(a1-3)Gal,0.258
same,glycan array binding signal (z-score),Gal(a1-3)Gal(b1-3)GlcNAc,-0.285
same,glycan array binding signal (z-score),[1],-0.35
same,glycan array binding signal (z-score),[2],-0.1
same,glycan array binding signal (z-score),[3],-0.056
same,glycan array binding signal (z-score),[4],-0.289
same,glycan array binding signal (z-score),[5],0.159
same,glycan array binding signal (z-score),Gal(a1-3)Gal(b1-4)Glc,-0.149
same,glycan array binding signal (z-score),Gal(a1-3)Gal(b1-4)GlcNAc,-0.152
same,glycan array binding signal (z-score),[6],-0.183
same,glycan array binding signal (z-score),[7],0.997
same,glycan array binding signal (z-score),[8],-0.442
same,glycan array binding signal (z-score),[9],-0.748
same,glycan array binding signal (z-score),[10],21.5
same,glycan array binding signal (z-score),[11],0.707
same,glycan array binding signal (z-score),Gal(a1-3)GalNAc,-0.37
same,glycan array binding signal (z-score),[12],0.364
same,glycan array binding signal (z-score),[13],1.13
same,glycan array binding signal (z-score),Gal(a1-4)Gal(b1-4)Glc,-0.237
same,glycan array binding signal (z-score),Gal(a1-4)Gal(b1-4)GlcNAc,0.201
same,glycan array binding signal (z-score),[14],0.301
same,glycan array binding signal (z-score),[15],-0.288
same,glycan array binding signal (z-score),Gal(a1-4)GlcNAc,-0.243
same,glycan array binding signal (z-score),Gal(a1-6)Glc,-0.614
same,glycan array binding signal (z-score),Gal(b1-2)Gal,-0.741
same,glycan array binding signal (z-score),Gal(b1-3)Gal,-0.063
same,glycan array binding signal (z-score),Gal(b1-3)Gal(b1-4)GlcNAc,-0.248
same,glycan array binding signal (z-score),Gal(b1-3)GalNAc,-0.339
same,glycan array binding signal (z-score),[16],0.173
same,glycan array binding signal (z-score),[17],-0.118
same,glycan array binding signal (z-score),Gal(b1-3)GalNAc(b1-3)Gal,0.135
same,glycan array binding signal (z-score),[18],-0.336
same,glycan array binding signal (z-score),[19],0.134
same,glycan array binding signal (z-score),[20],-0.168
same,glycan array binding signal (z-score),Gal(b1-3)GlcNAc,-0.272
same,glycan array binding signal (z-score),[21],0.488
same,glycan array binding signal (z-score),[22],0.179
same,glycan array binding signal (z-score),Gal(b1-3)GlcNAc(b1-2)Man,0.036
